# Laboratory results from the supplement of paper PMC10928670.
# Columns and labels:
# Test in all cases: Agar dilution by CLSI M07.
# azithromycin = compound: CC[C@H]1OC(=O)[C@H](C)[C@@H](O[C@H]2C[C@@](C)(OC)[C@@H](O)[C@H](C)O2)[C@H](C)[C@@H](O[C@@H]2O[C@H](C)C[C@H](N(C)C)[C@H]2O)[C@](C)(O)C[C@@H](C)CN(C)[C@H](C)[C@@H](O)[C@]1(C)O [azithromycin]
# ceftriaxone = compound: CO/N=C(\C(=O)N[C@@H]1C(=O)N2C(C(=O)O)=C(CSc3nc(=O)c(O)nn3C)CS[C@H]12)c1csc(N)n1 [ceftriaxone]
# cefixime = compound: C=CC1=C(C(=O)O)N2C(=O)[C@@H](NC(=O)/C(=N\OCC(=O)O)c3csc(N)n3)[C@H]2SC1 [cefixime]
# spectinomycin = compound: CN[C@@H]1[C@H](O)[C@H](NC)[C@H]2O[C@@]3(O)C(=O)C[C@@H](C)O[C@H]3O[C@@H]2[C@H]1O [spectinomycin]
# penicillin G = compound: CC1(C)S[C@@H]2[C@H](NC(=O)Cc3ccccc3)C(=O)N2[C@H]1C(=O)O [penicillin G]
Test System,MIC (azithromycin),MIC (ceftriaxone),MIC (cefixime),MIC (spectinomycin),MIC (penicillin G)
"Neisseria gonorrhoeae isolate 58 (GyrA: Wild type, ParC: Wild type, mtrR: Wild type, penA: Type XXII NonMosaic, A517G, ponA: Wild type, porB: G120D)",0.06 µg/mL,≤ 0.015 µg/mL,≤ 0.015 µg/mL,16 µg/mL,0.25 µg/mL
"Neisseria gonorrhoeae isolate 59 (GyrA: Wild type, ParC: Wild type, mtrR: G45D, penA: Type XXII NonMosaic, A517G, ponA: Wild type, porB: G120D, A121D)",0.25 µg/mL,0.03 µg/mL,0.03 µg/mL,16 µg/mL,1 µg/mL
"Neisseria gonorrhoeae isolate 60 (GyrA: Wild type, ParC: Wild type, mtrR: Wild type, penA: Type I NonMosaic, ponA: Wild type, porB: Wild type)",0.06 µg/mL,≤ 0.015 µg/mL,≤ 0.015 µg/mL,16 µg/mL,0.06 µg/mL
"Neisseria gonorrhoeae isolate 61 (GyrA: S91F, D95G, ParC: Wild type, mtrR: -35A Del, penA: Type XII NonMosaic, A517G, ponA: L421P, porB: G120K, A121D)",0.25 µg/mL,≤ 0.015 µg/mL,0.03 µg/mL,16 µg/mL,2 µg/mL
"Neisseria gonorrhoeae isolate 62 (GyrA: Wild type, ParC: Wild type, mtrR: A39T, penA: Type II NonMosaic, A517G, ponA: Wild type, porB: Wild type)",0.125 µg/mL,≤ 0.015 µg/mL,≤ 0.015 µg/mL,16 µg/mL,0.25 µg/mL
"Neisseria gonorrhoeae isolate 63 (GyrA: Wild type, ParC: Wild type, mtrR: G45D, penA: Type II NonMosaic, A517G, ponA: L421P, porB: porB1a)",0.06 µg/mL,≤ 0.015 µg/mL,≤ 0.015 µg/mL,8 µg/mL,0.5 µg/mL
"Neisseria gonorrhoeae isolate 64 (GyrA: Wild type, ParC: Wild type, mtrR: -35A Del, A39T, penA: Type XII NonMosaic, A517G, ponA: L421P, porB: G120D)",0.25 µg/mL,0.03 µg/mL,0.03 µg/mL,16 µg/mL,1 µg/mL
"Neisseria gonorrhoeae isolate 65 (GyrA: S91F, ParC: Wild type, mtrR: G45D, penA: Type VII NonMosaic, A501V, A517G, G543S, ponA: L421P, porB: G120K, A121D)",0.06 µg/mL,0.06 µg/mL,0.06 µg/mL,16 µg/mL,2 µg/mL
"Neisseria gonorrhoeae isolate 66 (GyrA: Wild type, ParC: Wild type, mtrR: -35A Del, penA: Type XXII NonMosaic, A517G, ponA: L421P, porB: G120K, A121D)",0.25 µg/mL,0.03 µg/mL,0.06 µg/mL,32 µg/mL,> 64 µg/mL
"Neisseria gonorrhoeae isolate 67 (GyrA: Wild type, ParC: Wild type, mtrR: -35A Del, penA: Type IX NonMosaic, A517G, ponA: L421P, porB: G120D)",0.5 µg/mL,0.03 µg/mL,0.03 µg/mL,16 µg/mL,4 µg/mL
"Neisseria gonorrhoeae isolate 68 (GyrA: Wild type, ParC: Wild type, mtrR: -35A Del, G45D, penA: Type II NonMosaic, A517G, ponA: L421P, porB: G120D)",0.5 µg/mL,0.03 µg/mL,0.03 µg/mL,16 µg/mL,2 µg/mL
"Neisseria gonorrhoeae isolate 69 (GyrA: Wild type, ParC: Wild type, mtrR: Wild type, penA: Type I NonMosaic, ponA: Wild type, porB: Wild type)",0.25 µg/mL,≤ 0.015 µg/mL,≤ 0.015 µg/mL,16 µg/mL,0.125 µg/mL
"Neisseria gonorrhoeae isolate 70 (GyrA: Wild type, ParC: Wild type, mtrR: Wild type, penA: Type I NonMosaic, ponA: Wild type, porB: Wild type)",0.06 µg/mL,≤ 0.015 µg/mL,≤ 0.015 µg/mL,16 µg/mL,0.06 µg/mL
"Neisseria gonorrhoeae isolate 71 (GyrA: S91F, D95N, ParC: Wild type, mtrR: -35A Del, G45D, penA: Type XI NonMosaic, A501V, A517G, ponA: L421P, porB: porB1a)",1 µg/mL,0.125 µg/mL,0.06 µg/mL,16 µg/mL,1 µg/mL
"Neisseria gonorrhoeae isolate 72 (GyrA: S91F, D95G, ParC: Wild type, mtrR: -35A Del, penA: Type V NonMosaic, A517G, G543S, ponA: L421P, porB: G120K, A121D)",0.25 µg/mL,0.03 µg/mL,0.03 µg/mL,16 µg/mL,2 µg/mL
"Neisseria gonorrhoeae isolate 73 (GyrA: S91F, ParC: Wild type, mtrR: G45D, penA: Type IV NonMosaic, A517G, G543S, ponA: L421P, porB: G120K, A121D)",0.25 µg/mL,0.03 µg/mL,≤ 0.015 µg/mL,16 µg/mL,1 µg/mL
"Neisseria gonorrhoeae isolate 74 (GyrA: Wild type, ParC: Wild type, mtrR: A39T, penA: Type II NonMosaic, A517G, ponA: Wild type, porB: Wild type)",0.06 µg/mL,≤ 0.015 µg/mL,≤ 0.015 µg/mL,16 µg/mL,0.125 µg/mL
"Neisseria gonorrhoeae isolate 75 (GyrA: Wild type, ParC: Wild type, mtrR: G45D, penA: Type 249 NonMosaic, A517G, ponA: Wild type, porB: G120D)",≤ 0.03 µg/mL,≤ 0.015 µg/mL,≤ 0.015 µg/mL,16 µg/mL,0.25 µg/mL
"Neisseria gonorrhoeae isolate 76 (GyrA: Wild type, ParC: Wild type, mtrR: -35A Del, G45D, penA: Type II NonMosaic, A517G, ponA: L421P, porB: G120K, A121D)",0.125 µg/mL,0.03 µg/mL,0.03 µg/mL,32 µg/mL,> 64 µg/mL
"Neisseria gonorrhoeae isolate 77 (GyrA: Wild type, ParC: Wild type, mtrR: G45D, penA: Type XXII NonMosaic, A517G, ponA: Wild type, porB: Wild type)",0.06 µg/mL,≤ 0.015 µg/mL,0.03 µg/mL,16 µg/mL,0.25 µg/mL
"Neisseria gonorrhoeae isolate 78 (GyrA: S91F, ParC: Wild type, mtrR: G45D, penA: Type IV NonMosaic, A517G, G543S, ponA: L421P, porB: G120K, A121D)",0.06 µg/mL,0.06 µg/mL,0.03 µg/mL,16 µg/mL,2 µg/mL
"Neisseria gonorrhoeae isolate 79 (GyrA: Wild type, ParC: Wild type, mtrR: -35A Del, G45D, penA: Type XXII NonMosaic, A517G, ponA: L421P, porB: G120D)",0.06 µg/mL,0.03 µg/mL,0.03 µg/mL,16 µg/mL,0.5 µg/mL
"Neisseria gonorrhoeae isolate 80 (GyrA: Wild type, ParC: Wild type, mtrR: -35A Del, penA: Type IX NonMosaic, A517G, ponA: L421P, porB: G120K, A121D)",1 µg/mL,0.03 µg/mL,0.03 µg/mL,16 µg/mL,4 µg/mL
"Neisseria gonorrhoeae isolate 81 (GyrA: Wild type, ParC: Wild type, mtrR: -35A Del, penA: Type XXII NonMosaic, A517G, ponA: L421P, porB: G120K, A121D)",0.25 µg/mL,≤ 0.015 µg/mL,≤ 0.015 µg/mL,64 µg/mL,1 µg/mL
"Neisseria gonorrhoeae isolate 82 (GyrA: Wild type, ParC: Wild type, mtrR: Wild type, penA: WT NonMosaic, ponA: Wild type, porB: Wild type)",0.06 µg/mL,≤ 0.015 µg/mL,≤ 0.015 µg/mL,16 µg/mL,≤ 0.03 µg/mL

# MIC of N. gonorrhoeae strains collected 1971-2005, agar dilution (CLSI M07); ranges 0.03-64 mg/L (penicillin, azithromycin), 0.015-1 (cefixime, ceftriaxone), 0.5-256 (spectinomycin); higher = less susceptible. No active / inactive call per row; the paper counts cefixime and ceftriaxone above 0.25 and azithromycin above 1 mg/L as non-susceptible. The source says 'penicillin'; penicillin G is assumed. Isolates are numbered anew.
